The supplement of paper PMC4967469
pIC50: −log10 of the molar value. A lower IC50 marks a more sensitive line; a limit (>, <) means that the fit lies beyond the doses tested. AUC sums up the same curve from the lowest dose to the 256-fold higher top dose; values near 1 show little effect. The top dose, if marked as inferred, was calculated from the reported fits.

Experiments:
Test in all cases: Viability of human cancer cell lines after 72 h of drug (GDSC screen)
Tipifarnib = compound: Cn1cncc1[C@@](N)(c1ccc(Cl)cc1)c1ccc2c(c1)c(-c1cccc(Cl)c1)cc(=O)n2C [Tipifarnib]; settings: top dose 16 µM; top dose inferred
Procedure: (§1)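 Human cancer cell lines in 384-well plates, medium with 10% serum, drug for 72 h over a 256-fold dose range (nine 2-fold or five 4-fold steps up to the top dose). Adherent lines were fixed and stained with the nucleic acid dye Syto60, suspension lines read with resazurin; signal relative to control wells, capped at 0 and 100%. One two-parameter sigmoid per drug and line, fitted in a mixed model over all curves with the slope shared within a line.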

GSK-1904529A = compound: CCc1cc(Nc2nccc(-c3c(-c4ccc(OC)c(C(=O)Nc5c(F)cccc5F)c4)nc4ccccn34)n2)c(OC)cc1N1CCC(N2CCN(S(C)(=O)=O)CC2)CC1 [GSK-1904529A]; settings: top dose 1.024 µM; top dose inferred
Procedure: as §1

PFI-1 = compound: COc1ccccc1S(=O)(=O)Nc1ccc2c(c1)CN(C)C(=O)N2 [PFI-1]; settings: top dose 10 µM; top dose inferred
Procedure: as §1

NG-25 = compound: CCN1CCN(Cc2ccc(NC(=O)c3ccc(C)c(Oc4ccnc5[nH]ccc45)c3)cc2C(F)(F)F)CC1 [NG-25]; settings: top dose 10.24 µM; top dose inferred
Procedure: as §1

| Cell Line | AUC (Tipifarnib) | pIC50 (Tipifarnib) | AUC (GSK-1904529A) | pIC50 (GSK-1904529A) | AUC (PFI-1) | pIC50 (PFI-1) | AUC (NG-25) | pIC50 (NG-25) |
| --- | --- | --- | --- | --- | --- | --- | --- | --- |
| MC-IXC (neuroblastoma, adherent) | 0.688 | 5.54 | 0.994 | < 5.99 | 0.996 | < 5.00 | 0.885 | 5.21 |
| DOK (head and neck, adherent) | 0.911 | < 4.80 | 0.937 | < 5.99 | 0.776 | 5.20 | 0.936 | < 4.99 |
| TOV-112D (ovary, adherent) | 0.329 | 6.48 | 0.915 | < 5.99 | 0.821 | 5.23 | 0.874 | 5.00 |
| RCM-1 (large intestine, adherent) | 0.909 | < 4.80 | 0.982 | < 5.99 | 0.911 | < 5.00 | 0.973 | < 4.99 |
| HPAC (pancreas, adherent) | 0.316 | 6.61 | 0.973 | < 5.99 | 0.954 | < 5.00 | 0.777 | 5.22 |
| PC-14 (lung adenocarcinoma, adherent) | 0.821 | 5.10 | 0.987 | < 5.99 | 0.928 | < 5.00 | 0.819 | 5.30 |
| JHH-1 (liver, adherent) | 0.707 | 5.39 | 0.943 | < 5.99 | 0.753 | 5.44 | 0.976 | < 4.99 |
| SJRH30 (rhabdomyosarcoma, adherent) | 0.799 | 5.10 | 0.957 | < 5.99 | 0.897 | < 5.00 | 0.986 | < 4.99 |
| SW780 (bladder, adherent) | 0.969 | < 4.80 | 0.983 | < 5.99 | 0.796 | 5.28 | 0.971 | < 4.99 |
| H2803 (mesothelioma, adherent) | 0.78 | 5.11 | 0.972 | < 5.99 | 0.891 | < 5.00 | 0.798 | 5.24 |
| OV-90 (ovary, adherent) | 0.788 | 5.03 | 0.966 | < 5.99 | 0.853 | < 5.00 | 0.971 | < 4.99 |
| OE19 (oesophagus, adherent) | 0.732 | 5.29 | 0.939 | < 5.99 | 0.914 | < 5.00 | 0.983 | < 4.99 |
| MDA-MB-415 (breast, adherent) | 0.702 | 5.34 | 0.962 | < 5.99 | 0.918 | < 5.00 | 0.98 | < 4.99 |
| NCI-H1563 (lung adenocarcinoma, adherent) | 0.869 | < 4.80 | 0.951 | < 5.99 | 0.863 | < 5.00 | 0.886 | < 4.99 |
| DU-145 (prostate, adherent) | 0.757 | 5.22 | 0.971 | < 5.99 | 0.861 | < 5.00 | 0.856 | 5.01 |
| TK (B-cell lymphoma, suspension) | 0.529 | 5.92 | 0.989 | < 5.99 | 0.948 | < 5.00 | 0.821 | 5.28 |
| PL4 (pancreas, adherent) | 0.785 | 5.15 | 0.987 | < 5.99 | 0.913 | < 5.00 | 0.908 | < 4.99 |
| RMG-I (ovary, adherent) | 0.865 | < 4.80 | 0.981 | < 5.99 | 0.654 | 5.74 | 0.81 | 5.19 |
| HCC-56 (large intestine, adherent) | 0.828 | 4.99 | 0.986 | < 5.99 | 0.86 | 5.06 | 0.891 | < 4.99 |
| H4 (glioma, adherent) | 0.524 | 5.94 | 0.981 | < 5.99 | 0.752 | 5.48 | 0.952 | < 4.99 |
| A2058 (melanoma, adherent) | 0.787 | 5.21 | 0.99 | < 5.99 | 0.75 | 5.53 | 0.907 | < 4.99 |
| huH-1 (liver, adherent) | 0.823 | 4.90 | 0.981 | < 5.99 | 0.938 | < 5.00 | 0.984 | < 4.99 |
| PCI-6A (head and neck, adherent) | 0.7 | 5.44 | 0.959 | < 5.99 | 0.915 | < 5.00 | 0.817 | 5.25 |
| ME-180 (cervix, adherent) | 0.746 | 5.28 | 0.965 | < 5.99 | 0.84 | 5.14 | 0.874 | < 4.99 |
| C32 (melanoma, adherent) | 0.974 | < 4.80 | 0.986 | < 5.99 | 0.918 | < 5.00 | 0.917 | < 4.99 |
